# Source: PubChem BioAssay AID1508624 (National Center for Advancing Translational Sciences (NCATS), 2021)
# Out of some 48,000 compounds screened, about 120 (0.25%) were called active. Inconclusive results (about 4%) are left out. Calls come from the whole dose curve; as a rule, active = well fitted activation curve with a large enough effect; inconclusive = small, poorly fitted or top-dose-only effect, or another doubt; inactive = no such curve, though single readings can be large or run the other way. Some of the results follow.
# Assay: Primary qHTS for Identification of Small Molecule Activators of Huntingtin-Antisense Promoter Activity; note: nearly all actives have a fitted effect of over 55% in size
# Settings: HEK293 HTT-AS promoter firefly luciferase reporter, 24 h; at 57.5 µM (top of the series) unless noted
# Summary of the method: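 HEK293 luciferase promoter-reporter cells (2,500/well) plated 24 h, then compounds added at up to 57.5 uM final for 24 h at 37 °C. Firefly luminescence by Dual-Glo, normalized to vehicle (0%) and zero RLU (-100%).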
row,SMILES,"activity change, positive = activation"
1,CCC(=O)OC1CCC2C3CCC4=CC(=O)CC[C@@]4(C)C3CC[C@]12C (some centres undefined),inactive: -5.43%
2,C=CCN1C[C@H](C)N([C@H](c2ccc(C(=O)N(CC)CC)cc2)c2cccc(OC)c2)C[C@H]1C,inactive: 3.02%
3,Clc1ccc(CO/N=C(\Cn2ccnc2)c2ccc(Cl)cc2Cl)c(Cl)c1,inactive: -29.4%
4,C[C@]12CC[C@H]3[C@@H](CCC4=CC(=O)CC[C@@H]43)[C@@H]1CC[C@@H]2OC(=O)CCc1ccccc1,inactive: -0.0477%
5,O=C1NCN(c2ccccc2)C12CCN(CC1COc3ccccc3O1)CC2 (centres undefined),inactive: -19.1%
6,CC(C)(N)Cc1ccccc1Cl,inactive: -4.91%
7,COC(=O)c1ccc(NC(=O)c2cccn(Cc3ccccc3C)c2=O)cc1,inactive: -35.5%
8,c1ccc2nc(N3CCNCC3)ccc2c1,inactive: 0.396%
9,Cc1ccc(OCC(=O)Nc2ccc(Cl)cc2C(=O)c2ccccc2)cc1,inactive: -5.21%
10,CC1Sc2c(C(=O)O)c(=O)c3cc(F)c(N4CCNCC4)cc3n21 (centres undefined),inactive: 0.11%
11,O=c1oc2ccccc2c(O)c1C(CC(O)c1ccc(-c2ccc(Br)cc2)cc1)c1ccccc1 (centres undefined),inactive: -17.3%
12,Cc1c(C(=O)c2cccc3ccccc23)c2cccc3c2n1[C@H](CN1CCOCC1)CO3,inactive: -30.6%
13,O=S1(=O)N(Cc2ccccc2)CCCN1Cc1ccc(F)cc1Cl,"inactive: -27.2% [at 57.5 µM, percent change from vehicle, -100% = no light]"
14,O=C(Nc1ccc(Br)cc1C(=O)c1ccccc1)c1ccccc1,"inactive: -11.1% [at 57.5 µM, percent change from vehicle, -100% = no light]"
15,CC(=CCCC1=CCC(C2=CC(=O)OC2O)OC1O)CCC1=C(C)CCCC1(C)C (centres undefined),inactive: -15.5%
16,CC(CCc1ccccc1)NC(C)C(O)c1ccc(O)cc1 (centres undefined),inactive: -16.8%
17,CCCOC(=O)Cc1ccc(OCC(=O)N(CC)CC)c(OC)c1,inactive: -3.28%
18,OCCCBr,inactive: -5.38% [at 116 µM]
19,CC[C@@]1(O)C(=O)OCc2c1cc1n(c2=O)Cc2cc3ccccc3nc2-1,inactive: -34%
20,CCCOC(=O)c1cncn1C(C)c1ccccc1 (centres undefined),inactive: -1.31%

row,SMILES,"activity change, positive = activation"
1,CN(C)CCc1c[nH]c2ccc(O)cc12,inactive: -9.68% [at 116 µM]
2,CCOC(=O)c1ccc(NC(=O)c2sc3nc4c(cc3c2N)N2CCC4CC2)cc1,inactive: -42.8%
3,CCCC[N+]1(C)[C@@H]2CC(OC(=O)[C@H](CO)c3ccccc3)C[C@H]1[C@@H]1O[C@@H]12 (some centres undefined),inactive: -0.073%
4,CCNC(=O)C[C@@H]1N=C(c2ccc(Cl)cc2)c2cc(OC)ccc2-n2c(C)nnc21,inactive: -17.9%
5,Cc1cc(C)cc(OCC(=O)Nc2ccc(Cl)cc2C(=O)c2ccccc2)c1,"inactive: -5.83% [at 57.5 µM, percent change from vehicle, -100% = no light]"
6,Oc1c(Br)cc(Br)cc1Br,inactive: -0.297%
7,COc1cc([C@@H]2c3cc4c(cc3[C@@H](O)C3COC(=O)C32)OCO4)cc(OC)c1O (some centres undefined),inactive: -29.8%
8,NCCc1cc(O)c(O)cc1O,inactive: -0.172%
9,NNc1ccccc1,"inactive: -7.68% [at 57.5 µM, percent change from vehicle, -100% = no light]"
10,COc1ccc(OCC(=O)N2CCN(Cc3cccc(OC)c3OC)CC2)cc1,"inactive: -21.8% [at 57.5 µM, percent change from vehicle, -100% = no light]"
11,CN1CCN(c2ccc([N+](=O)[O-])c3no[n+]([O-])c23)CC1,inactive: -20.8%
12,CCCN(CCC)C(=O)Cc1c(-c2ccc(Cl)cc2)nc2ccc(Cl)cn12,inactive: 2.93%
13,Clc1cccc(N2CCNCC2)c1,inactive: -7.49%
14,Clc1ccc(CSC(Cn2ccnc2)c2ccc(Cl)cc2Cl)cc1 (centres undefined),inactive: -40%
15,CC(C)=CC1C(C(=O)OCN2C(=O)C3=C(CCCC3)C2=O)C1(C)C (centres undefined),inactive: -26.7%
16,Cc1ncc(CNC(=O)N(CCCl)N=O)c(N)n1,inactive: -6.1%
17,COc1cc(C[C@@H](C)N)c(OC)cc1C,inactive: -18.6% [at 116 µM]
18,Cc1cccc2sc(NC(=O)c3cccn(Cc4ccccc4)c3=O)nc12,inactive: -12.4%
19,O=C(CN1C(=O)CN=C(c2ccccc2)c2ccccc21)Nc1cccc(C(F)(F)F)c1,inactive: -28.1%
